Reference: patent US9108930B2, “N1- and N2-carbamoyl-1,2,3-triazole serine hydrolase inhibitors and methods” (The Scripps Research Institute, priority 2011, dated 2015)

System: BW5147-derived murine T-cell hybridoma cells
Test: Cell proliferation assay (WST-1)
Type: cell-based, mouse
Settings: 1 nM, 12 h
Description: Cells were incubated for 10 h (37° C., 5% CO2) and then treated with inhibitor AA74-1 (1 nM final concentration) and incubated for further 12 h. About 10 μL of WST-1 reagent were added to each well and plates were incubated for 2 h in the dark at 37° C. Relative absorbance was measured with a plate reader at 440 nm. Data represent the average±s.d. for four experiments.

| SMILES | effect on cellular proliferation |
| --- | --- |
| CC(C)CC(O)(CC(C)C)c1cnn(C(=O)N2CCCC2)n1 [AA74-1] | significant increase in cellular proliferation |
| COCC1CCCCN1C(=O)n1ncc(C(O)(c2ccccc2)c2ccccc2)n1 (centres unmarked) [AA44-2] | not observed |
